According to PubChem BioAssay AID686978 (National Center for Advancing Translational Sciences (NCATS), 2013):
Hit rate of the full screen: of about 420,000 compounds, about 64,000 (15%) were called active. This list was built around the results that the source calls inconclusive (neither active nor inactive); the mix of calls is not that of the screen. The call rests on the fitted dose curve; in most records, active means well fitted inhibition curve with a large enough effect; inconclusive means small, poorly fitted or top-dose-only effect; inactive means flat fitted curve, though single readings scatter. No potency is given beside an inconclusive call; the fits are too rough.

Assay: qHTS for Inhibitors of human tyrosyl-DNA phosphodiesterase 1 (TDP1): qHTS in cells in absence of CPT; further: nearly all actives have a fitted effect of over 55% in size
Details: DT40 Tdp1-/- hTDP1 cells, no CPT, ATP luminescence, 48 h; series mostly up to 46.2 µM
Method in brief: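 Chicken DT40 Tdp1-/- cells stably complemented with human TDP1 were seeded at 400 cells/well with DMSO in place of 20 nM camptothecin. After compound pinning, cells grew at least 48 hr at 37 °C; viability read by CellTiter-Glo luminescence.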
Potency means the concentration at half of the fitted maximal effect; tags describe the fitted curve by direction and shape.

SMILES | Potency
CCN(CC)S(=O)(=O)c1cccc(C(=O)Nc2cccnc2)c1 | inactive
CC(NC(=S)Nc1ccc(OC(F)F)c(Cl)c1)C(C)(C)C (configuration not stated) | inconclusive [inhibitor, single point]
CC(C)CC1C(=O)N(Cc2cn(CC3CCCCC3)nn2)CCS(=O)(=O)N1Cc1ccc(-c2ccc(Cl)cc2)cc1 (configuration not stated) | inconclusive [inhibitor, partial curve]
Cc1cc(Cl)ccc1NC(=O)C1CCN(S(C)(=O)=O)CC1 | inactive
N#CCc1nc(-c2cc3ccccc3oc2=O)cs1 | inconclusive [inhibitor, partial curve]
CCc1ccc(-c2nc(SCC(=O)c3c(N)n(C4CC4)c(=O)[nH]c3=O)n[nH]2)cc1 | inactive
O=C1O/C(=C/C(=O)N2CCOCC2)c2ccccc21 | inconclusive [inhibitor, single point]
CCOC(=O)C1=NNC2C(=O)N(C3CCCCC3)C(=O)C12 (configuration not stated) | inactive
O=C(NCc1ccccc1)C1Cc2c(-c3cccc(F)c3)ccnc2O1 (configuration not stated) | active: 0.92 µM
Cc1ccc(CN(C(=O)COc2cccc(Cl)c2)c2ccccn2)o1 | inconclusive [inhibitor, single point]
CCOc1ccc(NC(c2ccc(Cl)cc2)c2nnc(-c3cccc(F)c3)o2)cc1 (configuration not stated) | inactive
CCSc1ncc(Cl)c(C(=O)Nc2ccc(S(=O)(=O)N3CCCCC3CC)cc2)n1 (configuration not stated) | active: 6.51 µM
CC1(C)NS(=O)(=O)Oc2ccccc21 | inactive
COc1ccc(OC)c(Cc2nnc(CCC(=O)NC3CCCCCCC3)o2)c1 | inconclusive [inhibitor, single point]
Cc1cccc(-n2ncc3c(NCc4ccccn4)ncnc32)c1 | inconclusive [inhibitor, single point]
CN(C)C(=O)CNc1ccn2nc(-c3cccc(Cl)c3)cc2n1 | active: 18.4 µM
COc1ccc(-c2nnc(-c3ccc4ccccc4c3)o2)cc1 | inactive
CC1(C)Cc2nc3sc(C(=O)NCCO)c(N)c3cc2CO1 | inconclusive [inhibitor, partial curve, poor fit]
COc1ccc(NS(=O)(=O)c2cccc3cccnc23)cc1OC | inconclusive [inhibitor, partial curve]
O=S(=O)(Nc1ccc(-c2ccc(N3CCOCC3)nn2)cc1)c1ccc(Cl)c(Cl)c1 | inconclusive [inhibitor, single point]
FC(F)(F)c1ccccc1-c1cncnc1NCCN1CCOCC1 | active: 1.46 µM
COc1ccc(OC)c(CN2C[C@H](Sc3ccc(F)cc3)C[C@H]2C(=O)N(C)C)c1 | inconclusive [inhibitor, single point]
